# Data: publication PMC4980431, “Ctf4 Is a Hub in the Eukaryotic Replisome that Links Multiple CIP-Box Proteins to the CMG Helicase” (Molecular Cell, 2016)
# By UniProt entry, the sequences of proteins in these tests, tags left out.
# UniProt P38859: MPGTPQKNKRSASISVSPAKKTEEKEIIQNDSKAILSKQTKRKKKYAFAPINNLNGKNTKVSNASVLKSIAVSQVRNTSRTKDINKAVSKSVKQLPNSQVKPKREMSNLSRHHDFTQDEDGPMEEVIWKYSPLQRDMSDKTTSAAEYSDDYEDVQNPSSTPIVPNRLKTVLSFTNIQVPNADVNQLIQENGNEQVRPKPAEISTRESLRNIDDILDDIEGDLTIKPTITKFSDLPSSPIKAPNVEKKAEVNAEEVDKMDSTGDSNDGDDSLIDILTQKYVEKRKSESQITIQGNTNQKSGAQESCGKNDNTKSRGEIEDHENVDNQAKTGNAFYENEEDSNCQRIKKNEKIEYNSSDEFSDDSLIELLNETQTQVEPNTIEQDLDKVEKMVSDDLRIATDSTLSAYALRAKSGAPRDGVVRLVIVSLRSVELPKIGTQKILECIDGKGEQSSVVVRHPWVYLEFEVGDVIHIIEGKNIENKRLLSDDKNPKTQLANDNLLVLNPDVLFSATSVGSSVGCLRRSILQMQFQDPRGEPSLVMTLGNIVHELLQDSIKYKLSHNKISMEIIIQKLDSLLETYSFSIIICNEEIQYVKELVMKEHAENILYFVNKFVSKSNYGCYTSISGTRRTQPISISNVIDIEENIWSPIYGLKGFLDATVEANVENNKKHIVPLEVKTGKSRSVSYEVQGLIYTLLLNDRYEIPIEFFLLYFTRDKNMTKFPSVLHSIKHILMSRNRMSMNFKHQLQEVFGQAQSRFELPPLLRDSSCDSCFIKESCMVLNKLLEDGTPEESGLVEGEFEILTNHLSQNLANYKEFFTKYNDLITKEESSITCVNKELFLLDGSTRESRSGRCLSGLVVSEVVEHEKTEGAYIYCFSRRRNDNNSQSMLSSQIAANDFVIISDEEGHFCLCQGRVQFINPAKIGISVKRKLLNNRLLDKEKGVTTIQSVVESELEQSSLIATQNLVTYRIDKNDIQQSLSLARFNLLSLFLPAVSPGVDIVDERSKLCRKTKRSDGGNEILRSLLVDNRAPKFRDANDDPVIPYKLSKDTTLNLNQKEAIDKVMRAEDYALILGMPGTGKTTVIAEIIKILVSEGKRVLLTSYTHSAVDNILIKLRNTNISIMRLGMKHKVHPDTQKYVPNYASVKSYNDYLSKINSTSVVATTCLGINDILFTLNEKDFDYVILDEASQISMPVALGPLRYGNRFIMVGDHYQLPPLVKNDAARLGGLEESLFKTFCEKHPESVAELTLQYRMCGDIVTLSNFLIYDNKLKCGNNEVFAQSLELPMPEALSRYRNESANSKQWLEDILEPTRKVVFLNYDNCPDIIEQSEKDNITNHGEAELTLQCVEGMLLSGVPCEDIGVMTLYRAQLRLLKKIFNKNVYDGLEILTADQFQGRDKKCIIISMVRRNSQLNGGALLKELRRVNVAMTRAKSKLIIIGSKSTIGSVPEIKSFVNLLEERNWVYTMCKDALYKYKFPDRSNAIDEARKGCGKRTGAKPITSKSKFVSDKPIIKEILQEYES
# Positions count from the first letter of the chain named. No constants are given. Whether binding was seen depends on the method and setting. For part of these data: Binding seen in cells or lysates may run through a third protein. Some binding calls cover weakened binding; strength is not graded here.
# T1: Ctf4-TAP (budding yeast) (UniProt Q01454)
# T1 sequence: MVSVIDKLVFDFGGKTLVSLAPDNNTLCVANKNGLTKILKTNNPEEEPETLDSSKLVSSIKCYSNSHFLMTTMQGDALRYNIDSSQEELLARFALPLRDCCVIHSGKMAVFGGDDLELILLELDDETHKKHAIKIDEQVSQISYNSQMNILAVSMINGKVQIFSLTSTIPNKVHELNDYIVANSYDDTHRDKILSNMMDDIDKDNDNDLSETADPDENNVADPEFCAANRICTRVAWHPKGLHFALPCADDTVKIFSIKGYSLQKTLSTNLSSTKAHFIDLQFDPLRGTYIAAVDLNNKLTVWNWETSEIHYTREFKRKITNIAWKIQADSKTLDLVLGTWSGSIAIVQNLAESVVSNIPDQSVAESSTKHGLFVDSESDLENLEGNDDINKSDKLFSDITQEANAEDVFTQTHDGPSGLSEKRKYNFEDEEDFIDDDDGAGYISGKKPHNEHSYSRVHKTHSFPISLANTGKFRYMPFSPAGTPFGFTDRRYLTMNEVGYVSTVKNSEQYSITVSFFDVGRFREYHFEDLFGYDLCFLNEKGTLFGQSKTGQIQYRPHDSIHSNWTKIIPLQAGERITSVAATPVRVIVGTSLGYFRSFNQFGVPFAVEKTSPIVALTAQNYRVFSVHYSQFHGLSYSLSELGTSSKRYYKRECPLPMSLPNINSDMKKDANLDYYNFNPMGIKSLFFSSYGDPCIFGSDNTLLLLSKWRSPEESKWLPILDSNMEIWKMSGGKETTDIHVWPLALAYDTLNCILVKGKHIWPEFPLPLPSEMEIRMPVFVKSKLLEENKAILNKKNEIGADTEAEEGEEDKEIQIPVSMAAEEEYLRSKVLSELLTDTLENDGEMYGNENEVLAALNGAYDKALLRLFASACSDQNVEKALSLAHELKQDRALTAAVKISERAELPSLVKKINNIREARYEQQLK
# T2: Ctf4-3E (two-hybrid) (budding yeast) (UniProt Q01454)
# T2 sequence: T1 sequence with M731E, I740E, L756E
# T3: Ctf4-4E (two-hybrid) (budding yeast) (UniProt Q01454)
# T3 sequence: T1 sequence with L867E, A871E, A897E, I901E
# T4: wild-type Ctf4 (two-hybrid, limits not stated) (budding yeast) (UniProt Q01454)
# T4 sequence: T1 sequence
# T5: Tof2 peptide 497–517 (yeast)
# T5 sequence (peptide, amino-terminal fluorescein label): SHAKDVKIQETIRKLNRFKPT
# B1: Ctf4 471–927 (domain or fragment, budding yeast, UniProt Q01454 471-927, looked up)
# chain: TGKFRYMPFSPAGTPFGFTDRRYLTMNEVGYVSTVKNSEQYSITVSFFDVGRFREYHFEDLFGYDLCFLNEKGTLFGQSKTGQIQYRPHDSIHSNWTKIIPLQAGERITSVAATPVRVIVGTSLGYFRSFNQFGVPFAVEKTSPIVALTAQNYRVFSVHYSQFHGLSYSLSELGTSSKRYYKRECPLPMSLPNINSDMKKDANLDYYNFNPMGIKSLFFSSYGDPCIFGSDNTLLLLSKWRSPEESKWLPILDSNMEIWKMSGGKETTDIHVWPLALAYDTLNCILVKGKHIWPEFPLPLPSEMEIRMPVFVKSKLLEENKAILNKKNEIGADTEAEEGEEDKEIQIPVSMAAEEEYLRSKVLSELLTDTLENDGEMYGNENEVLAALNGAYDKALLRLFASACSDQNVEKALSLAHELKQDRALTAAVKISERAELPSLVKKINNIREARYEQQLK
# notes: also called Ctf4CTD; source: purified Ctf4CTD protein
# What was measured:
# Ctf4-TAP (budding yeast) [1] = molecular target: T1, Ctf4-TAP (budding yeast); assay: co-IP; Ctf4-TAP isolated on magnetic beads coupled to IgG from extracts of S phase cells expressing GAL-DNA2-9MYC; immunoblotting
# Ctf4-TAP (budding yeast) [2] = molecular target: T1, Ctf4-TAP (budding yeast); assay: co-IP; Ctf4-TAP isolated on magnetic beads coupled to IgG from extracts of G1-phase cells expressing GAL-DNA2-9MYC; immunoblotting
# [3] = molecular target: T2, Ctf4-3E (two-hybrid) (budding yeast); assay: two-hybrid; directed yeast two-hybrid assay, fusions to the activation and DNA-binding domains of Gal4
# [4] = molecular target: T3, Ctf4-4E (two-hybrid) (budding yeast); assay: as above
# [5] = molecular target: T4, wild-type Ctf4 (two-hybrid, limits not stated) (budding yeast); assay: as above
# [6] = molecular target: T5, Tof2 peptide 497–517 (yeast); assay: fluorescence polarisation; fluorescence anisotropy; serial dilutions of Ctf4CTD with 40 nM (Sld5, Tof2) or 50 nM (Dna2) fluorescein-labeled peptide; 20 mM HEPES pH 7.2, 140 mM KCl, 5% glycerol, 25°C; both purified
molecule,measurement,setting,value
Dna2-9MYC (from UniProt P38859 1-1522),binding,Ctf4-TAP (budding yeast) [1],binds
same,binding,Ctf4-TAP (budding yeast) [2],no binding (condition: extracts of G1-phase cells)
"Dna2 (two-hybrid, Figures 5B and 5C, limits not stated) (from UniProt P38859 1-1522)",binding,[3],binds
same,binding,[4],no binding
same,binding,[5],binds
B1,binding,[6],binds weakly
